Article PMC4336329 (PLoS ONE, 2015)
In all, about 310,000 compounds went through this assay and about 2,200 (0.71%) showed an effect of 50% or more. The effect is printed as a negative number. The list shows a part of the results.

biological target: human ether-à-go-go-related gene (hERG) potassium channel (human, UniProt Q12809); assay: primary screen, population patch clamp on CHO cells stably expressing hERG
Sequence (Q12809 whole entry, looked up): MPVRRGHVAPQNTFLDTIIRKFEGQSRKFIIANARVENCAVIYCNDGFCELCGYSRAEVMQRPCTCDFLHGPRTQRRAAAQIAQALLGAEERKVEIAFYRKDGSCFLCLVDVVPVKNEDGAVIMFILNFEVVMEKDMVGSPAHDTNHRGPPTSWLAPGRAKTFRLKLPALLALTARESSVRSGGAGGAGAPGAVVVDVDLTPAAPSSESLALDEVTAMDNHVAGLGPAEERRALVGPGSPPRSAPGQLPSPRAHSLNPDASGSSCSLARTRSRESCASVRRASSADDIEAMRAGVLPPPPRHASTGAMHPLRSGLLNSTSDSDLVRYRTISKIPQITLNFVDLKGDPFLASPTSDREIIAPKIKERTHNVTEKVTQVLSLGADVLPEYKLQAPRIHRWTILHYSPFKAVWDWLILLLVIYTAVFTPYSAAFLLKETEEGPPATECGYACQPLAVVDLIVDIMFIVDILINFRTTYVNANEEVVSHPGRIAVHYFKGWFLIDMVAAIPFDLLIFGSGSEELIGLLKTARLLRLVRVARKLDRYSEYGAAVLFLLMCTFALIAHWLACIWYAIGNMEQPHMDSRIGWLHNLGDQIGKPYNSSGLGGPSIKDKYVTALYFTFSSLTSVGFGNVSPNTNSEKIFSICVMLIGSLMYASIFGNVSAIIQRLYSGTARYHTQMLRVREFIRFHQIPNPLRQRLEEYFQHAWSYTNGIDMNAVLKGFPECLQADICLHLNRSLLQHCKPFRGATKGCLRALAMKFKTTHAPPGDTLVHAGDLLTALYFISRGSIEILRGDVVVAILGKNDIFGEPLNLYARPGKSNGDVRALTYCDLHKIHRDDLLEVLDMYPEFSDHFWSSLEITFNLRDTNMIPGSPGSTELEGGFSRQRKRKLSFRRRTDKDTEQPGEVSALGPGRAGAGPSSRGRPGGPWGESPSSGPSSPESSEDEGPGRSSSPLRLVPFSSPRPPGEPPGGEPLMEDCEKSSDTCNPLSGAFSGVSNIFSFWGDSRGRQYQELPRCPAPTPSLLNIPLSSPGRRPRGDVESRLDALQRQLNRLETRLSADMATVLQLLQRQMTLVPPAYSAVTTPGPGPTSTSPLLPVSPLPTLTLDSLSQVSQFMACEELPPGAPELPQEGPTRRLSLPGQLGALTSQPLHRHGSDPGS

Structure (SMILES) | hERG current change (%, negative = inhibition) at 1uM
Cn1c(/C=N/O)nc2ccccc21 | 8.01%
CCONC(=O)Nc1ccccc1 | 20.8%
CC(O)CNc1ncnc2cc(-c3ccc(F)cc3)sc12 (centres unmarked) | 5.95%
O=C(NCCCN1CCC(Cc2ccccc2)CC1)C1CCC(=O)N1C1CCCC1 (centres unmarked) | 13%
O=C(O)CCC(=O)N(Cc1ccccc1)Cc1ccccc1 | 13.4%
COCC(C)NC(=O)c1nn(Cc2ccccc2)c(=O)c2ccccc12 (centres unmarked) | 7.12%
CCOC(=O)c1sc(N2C(=O)C(O)=C(C(=O)c3ccc(C)o3)C2c2ccc(OC)c(OC)c2)nc1C (centres unmarked) | 11.3%
CCOc1ccccc1N(CC(=O)Nc1ccccc1C(=O)N1CCCC1)S(C)(=O)=O | 10.9%
CCN1CCN(CCCNC(=O)c2cn(CCOC)c(=O)c3c2c2ccccc2n3C)CC1 | 0.221%
Cl.Oc1cccc(Nc2ncnc3c2oc2ccccc23)c1 | 10%
CCOC(=O)Cc1c(C)nc2cc(-c3ccc(C)cc3)[nH]n2c1=O | 10.7%
Cc1cnc(C(=O)OCC(=O)Nc2ncc(Cl)cc2Cl)cn1 | 26.1%
CNC(=S)NNC(=O)c1sc(-c2cc(C)on2)nc1C | 13.6%
NNC(=O)CSc1cccc2cccnc12 | 3.95%
O=C1CN(C(=O)c2ccccc2F)C(c2ccc(F)cc2)c2cc(Br)ccc2N1 (centres unmarked) | 3.87%
O=c1[nH]c2ccccc2c(=O)n1Cc1ccco1 | 6.5%
CN(c1ccc(C(=O)NCc2ccncc2)cc1)S(=O)(=O)c1ccc(Cl)cc1 | 8.9%
CCOC(=O)c1sc(N=NC2=C(O)CC(C)(C)CC2=O)c(C(=O)OCC)c1C | 9.12%
C=CCc1ccc(OC(=O)NC2CCCCC2)c(OC)c1 | 2.84%
O=C(NC1CCCC1)c1cc(-c2cccc(Cl)c2)on1 | 8.04%
COc1ccc(NS(=O)(=O)c2ccc(NC(=S)NC(=O)C(C)C)cc2)cc1 | 6.14%
Cc1cnc(C(=O)OC(C)C(=O)Nc2cccc3ccccc23)cn1 (centres unmarked) | 21.5%
COc1ccc(C(=O)OCC(=O)NC2CCCCCC2)cc1OC | 10%

Structure (SMILES) | hERG current change (%, negative = inhibition) at 1uM
Cn1c(CN2CCOCC2)nc2cc(NC(=O)c3ccc(F)cc3)ccc21 | -1.78%
COc1cc(CCC(=O)OCC(=O)Nc2ccc(F)c(F)c2)cc(OC)c1OC | 3.59%
Cn1c(SCC(=O)NC2CC2)nnc1-c1ccccc1Cl | 11.6%
O=C(CNC(=O)C1CC(=O)N(c2cccc3ccccc23)C1)Nc1ccccc1Br (centres unmarked) | 10.7%
COc1ccccc1-n1nnnc1SCC(=O)NC(=O)Cc1ccccc1 | 1.92%
CC(CC(=O)C1C(C)C=CCC1(C)C)NNC(N)=O (centres unmarked) | 24.6%
C/C(=N\NC(=O)C1CC1)c1ccc(C)c(C)c1 | 18.1%
Cc1ccc(-n2c(-c3cnccn3)n[nH]c2=S)cc1 | 10.1%
CN(CCc1ccccn1)C(=O)c1ccc(OC2CCN(CCc3ccccc3)CC2)cc1 | -5.56%
O=C1CC(c2ccco2)CC(O)=C1C=NCCN1CCN(C(=O)Nc2ccc(Cl)cc2)CC1 (centres unmarked) | -16.1%
CC(c1ccc(F)cc1)n1cc(S(=O)(=O)N2CCCC2)ccc1=O (centres unmarked) | -3.16%
COc1ccc(/C=C/C(=O)Nc2cc(S(=O)(=O)N3CCCCC3)ccc2N2CCCCC2)cc1OC | 1.94%
C=CCc1c(C)nc(SCCC)[nH]c1=O | 8.56%
O=C(OCc1nnc(-c2ccc([N+](=O)[O-])cc2)o1)C1CCN(C(=O)c2ccc(F)cc2)CC1 | -71.4%
O=P(OC1CCCCC1)(OC1CCCCC1)C(O)c1ccccc1 (centres unmarked) | 1.82%
COCCCN(CC(=O)O)S(=O)(=O)c1cccc(Cl)c1 | 5.55%
COCCn1c(Cc2ccccc2)nnc1SCC(=O)NC1CCCCC1 | 15.2%
COc1cc(CC(NC(C)=O)C(=O)NC2CCN(C(=O)C3CC3)CC2)cc(OC)c1 (centres unmarked) | 10.5%
COc1ccc(-c2oc3cc(OC)c(O)c(OC)c3c(=O)c2OC)cc1O | 9.27%
OC1CCC(Nc2ncnc3sccc23)CC1 (centres unmarked) | 15.2%
COc1ccc(N2C(=O)CC(SCC(=O)O)C2=O)cc1 (centres unmarked) | 4.69%
C1CCc2nc3c(nc2C1)CCCC3 | -4.29%
COc1ccc(C2CC(=O)c3c(O)cc(O)cc3O2)c(CC=C(C)C)c1OC (centres unmarked) | 13.1%

Structure (SMILES) | hERG current change (%, negative = inhibition) at 1uM
Cc1ccc(NC(=O)c2cnn(-c3ccccc3)c2C)cc1C | 6.32%
Cc1ccc2nc(-c3ccc(O)cc3)c(Nc3ccc4c(c3)OCCO4)n2c1 | 2.05%
CCCc1nnc(NC(=O)CNc2ccc(F)cc2)s1 | 1.24%
O=S(=O)(c1ccc(Cl)cc1)n1c(Cc2ccccc2)nc2ccccc21 | 9.19%
CC(Oc1ccc(Cl)cc1Cl)C(=O)Nc1ccc2oc(-c3ccncc3)nc2c1 (centres unmarked) | 9.73%
Cc1cc(Cl)c(S(=O)(=O)N2CCCCCC2)cc1OCC(=O)NC1CCCCC1 | 13.8%
CN(Cc1cccnc1)Cc1c(C(=O)N2CCc3ccccc3C2)nc2ccc(Cl)cn12 | 11.7%
CC(=O)Nc1ccc(NC(=O)CCSCCc2ccccn2)cc1 | 19.7%
O=C(COC(=O)CNC(=O)c1ccccc1Cl)Nc1cc(C(F)(F)F)ccc1Cl | 16.2%
CC(C)CN(C(=O)C(C)N1C(=O)c2ccccc2C1=O)c1c(N)n(Cc2ccccc2)c(=O)[nH]c1=O (centres unmarked) | 5.47%
CC(=O)Nc1ccc(C(=O)N/C(=C\c2ccccc2)C(=O)Nc2cccc(C(=O)O)c2)cc1 | 8.6%
CCCN(CC(=O)Nc1ccc(F)c(F)c1F)C(=O)c1ccc2c(=O)n3c(nc2c1)CCC3 | 11.7%
COc1cc(OC)c(C(=O)Nc2ccc(S(=O)(=O)N3CCCCC3)cc2)cc1OC | 16.6%
Cc1cc(Nc2ccccc2Br)n2nc(C)nc2n1 | 11.2%
COc1ccc(N2CCN(C(=S)Nc3cccc(OC)c3)CC2)cc1 | -0.255%
CCc1ccc(N2C(=O)c3sc4nnc(C)c(=O)n4c3C2=O)cc1 | -12%
Cc1cccc(CC2S/C(=N/N=C/c3ccco3)N(c3ccccc3)C2=O)c1 (centres unmarked) | -1.42%
CC(C)OP(=O)(CCP(=O)(OC(C)C)OC(C)C)OC(C)C | 13.4%
O=C(Nc1nc2ccc(S(=O)(=O)N3CCCC3)cc2s1)C1CCCCC1 | 18.8%
Cc1c(Cl)cccc1NC(=S)/C(=C(\[O-])c1ccc(Cl)s1)[n+]1ccccc1 | 12.8%
CC(O)CNCCOc1cccc(Oc2ccccc2)c1.O=C(O)C(=O)O (centres unmarked) | -0.98%
CN1/C(=N\O)c2cccc3cccc1c23 | 9.88%
CCOC(=O)c1cc(-c2ccccc2)sc1NC(=O)CN1C(=O)NC(CC)(c2ccccc2)C1=O (centres unmarked) | 0.988%

Structure (SMILES) | hERG current change (%, negative = inhibition) at 1uM
CCc1ccc(NC(=O)CN(C)S(=O)(=O)c2ccc3[nH]c(=O)oc3c2)cc1 | 5.73%
CCCCCC(O)(c1ccc(OC)cc1)C(CN1CCOCC1)c1ccccc1.Cl (centres unmarked) | 11.7%
Cc1cc(Oc2ccccc2)nc(-c2ccccc2)n1 | 3.61%
Cc1[nH]ccc(=O)c1OC1OC(CO)C(O)C(O)C1O (centres unmarked) | 13.7%
CCN(CC(=O)Nc1c(F)cccc1F)C(=O)CNC(=O)COc1ccccc1 | 10.9%
CCN(CC(=O)Nc1c(F)cccc1F)C(=O)CCCc1nc2ccccc2c(=O)[nH]1 | 7.51%
Cc1cc(C)n(-c2cc(N3CCN(S(=O)(=O)c4ccc(Cl)cc4)CC3)ccc2[N+](=O)[O-])n1 | 5.54%
O=S1(=O)CCC(NS(=O)(=O)c2ccc3ccccc3c2)C1 (centres unmarked) | 12%
O=C(O)C(=O)O.O=C(c1ccc(F)cc1)N1CCN(C2CCC(c3ccccc3)CC2)CC1 (centres unmarked) | -48.3%
CCCNC(=O)c1c(NC(=O)C2COc3ccccc3O2)sc2c1CCCC2 (centres unmarked) | -1.64%
COc1ccccc1CNC(=O)c1cc(S(=O)(=O)N2CCCCC2)c[nH]1 | 10.9%
CCn1cc(CN2CCC(n3nccc3NC(=O)C3CCCC3)CC2)cn1 | 17.1%
CCOc1ccc(NC(=O)CN(C)C(=O)CN2C(=O)C3CC=CCC3C2=O)cc1OCC (centres unmarked) | 15%
CC(CCl)OC(C)CCl (centres unmarked) | 9.1%
CCn1cc(C(=O)NCCN(C)CCc2ccccc2)c(=O)c2cc(S(=O)(=O)N(C)C)ccc21 | -1.34%
CC(=O)c1ccc(OCc2cc(C(=O)NCC3CCCCO3)no2)cc1 (centres unmarked) | 8.16%
C=CCOc1ccc(/C=C2/C(=O)ON=C2C)cc1OC | 16.8%
Cc1ccccc1Nc1c(-c2ccccn2)nc2c(C)cccn12 | 1.2%
O=C(NCc1ccc(F)cc1)C(Cc1ccccc1)NS(=O)(=O)c1cccs1 (centres unmarked) | 13.5%
CCCSC(=S)NC1CCS(=O)(=O)C1 (centres unmarked) | 10.5%
